# ± gives the standard deviation of the averaged measurements. The list shows a part of the results.
# Test system: PfAP2-I AP2 domain 3 (GST-tagged)
# Test: gcPBM binding intensity (ln(normalized median fluorescence intensity)); higher = stronger DNA binding
# How it was run: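 Alexa488 anti-GST antibody, scanned at 488 nm, detected GST-tagged P. falciparum DNA-binding domains that had been expressed in E. coli and incubated for 1 h on an Agilent 4 × 180k array. The array carried primer-extended double-stranded 36-bp intergenic genomic probes and negative controls. Binding intensity is the highest Masliner-normalised natural-log median intensity across replicate spots of either orientation of each probe.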
row,Sequence,gcPBM binding intensity (ln)
1,TTGTGTGAGCAAGTAGTGCATAATATAAATAAAAAA [GTGCAC_site9802],11.2 ± 0.54
2,TGAAATTTGTTATATGCATGTAAAATATTACGACGA [TGCATGCA_site201],8.28 ± 0.76
3,AAAATTGAAGGTAGAAGTACATATTTATTTCAATAA [XGTACX_site8732],7.58 ± 0.52
4,ATAGAATATTTTATTACACACAGAATAATAAAAAAT [CACACA_site6190],7.63 ± 0.52
5,TTATTTTTTTTAGCATATACAAATATATATATATAT [GTGCAC_negctrl_site4],9.24 ± 0.26
6,CTAAAAGGATGATGAATGCACTATTATTTATATGGA,10 ± 0.2
7,AAGAATTATTTTTTATGTACTTATATGTCAATTTTC [XGTACX_site6676],7.85 ± 0.42
8,AAAAAAAAGGAAATAACACACATGTATATATTTATA [CACACA_site1606],7.46 ± 0.46
9,CACCATGTTAACAATACATGCATCACTATATAAATG [TGCATGCA_site36],7.96 ± 0.74
10,AGTAATTATTTTAGAGTGCATAGTTTTTTAATAAAT,9.54 ± 0.18
11,AAATATATTTTTAATAGTACAATATGAAAATTTCAT [XGTACX_site2562],7.63 ± 0.51
12,TTTTTTTTTTTTTTTTGTACTCATACATACTATTAT [XGTACX_site989],8.07 ± 0.57
13,GTACACATATATATATATATATATATATATATATAT [CACACA_negctrl_site800],9.3 ± 0.58
14,TAATTTTCATGTTCATGTACTTAAATATAAGGTAAA [XGTACX_site3284],7.74 ± 0.45
15,ATTCATAACAAAAAAAGTACTCAAAATAATAATAAA [XGTACX_site6079],7.76 ± 0.58
16,TGCCTTATTAAAAGAATTACACATATTTAATCGAAA [GTGCAC_negctrl_site153],7.68 ± 0.28
17,ATAAAAAAATAAATAACACACAAAATTACACGAAAA [CACACA_site3620],8.06 ± 0.7
18,TATTAAAAAATTATATGTACACATTTGTTATATACA [XGTACX_site2232],7.91 ± 0.092
19,TTCTTTATATATGTTCGTACATATTATTATAATACA [XGTACX_site1549],8.14 ± 0.49

row,Sequence,gcPBM binding intensity (ln)
1,AATTAAAGGAATTACAACTTTGCAAGCGCAACATAA [CACACA_negctrl_site1411],7.54 ± 0.64
2,TATGTCCATATTTCCACACACATATTATTTTTATAT [CACACA_site3798],8.18 ± 0.53
3,ACGTTACATACATATACACACACATATATATATATA [CACACA_site8203],9.22 ± 0.39
4,TATATATATTATTATGCATGTAATAAAACAAATAAT [TGCATGCA_site625],8.53 ± 0.72
5,GGTGGTGGTGGGTGGGTGCTTCTATTATTATATTAT [GTGCAC_site9391],10.7 ± 0.47
6,GATGTTTCTATTTTAGTGCATTTTAAATAAATAAAT,10.4 ± 0.12
7,CTTAGGTGTTCATAGAGTACAAATAAAAAAATAAGA [XGTACX_site2294],8.04 ± 0.83
8,ATATATATTTTAATAACACACATATATTATATTATA [CACACA_site4387],8 ± 0.35
9,TCATTCTAAATATAAACACACATAAATAAATACATT [CACACA_site5788],7.67 ± 0.57
10,ATTTCTTCTTTTTTTGTGAAACTGGAATATATATAT [XGTACX_negctrl_site527],8.55 ± 0.34
11,AATATTTCTTTAATTTGTACATATAAGGGAAAATAA [XGTACX_site6221],7.97 ± 0.35
12,TTTTATTAATATTGCATGCACACTATATAATAATTG [CACACA_site1049],8.73 ± 0.49
13,CGGAAAAATTAAAGCACACAAAAAAAAATAAAAAAA [CACACA_site1133],9.86 ± 0.55
14,TTTTTATTATTTTAAAGTACTCTTTAGTAATTCCCT [XGTACX_site5863],7.59 ± 0.77
15,AAAAAACATACATACACACACATAAATATTTATATT [CACACA_site7300],7.84 ± 0.44
16,CACAGATAAATTAACACACACACACCGATATATATA [CACACA_site6049],8.33 ± 0.57
17,AGAAAAAACAAAAGAGAAATGAAAAAAAAAAAAAAA [XGTACX_negctrl_site482],7.86 ± 0.66
18,TAAAATAATATTTATGTGCACATATAATTATTAATT,10.395 ± 0.007
19,ATATATATTTTTATAACACACAATGATGTACATTAC [CACACA_site1076],8.06 ± 0.42

row,Sequence,gcPBM binding intensity (ln)
1,TTTGTGCTTATCCTAACACACACAACATATAAGAAA [CACACA_site9091],8.87 ± 0.092
2,TTATATATACCATAATGTACTCTATTATATAAAAAA [XGTACX_site7464],7.96 ± 0.45
3,TGTGTAGCTAGGGGGTTGCTAATTTTTGTTTTGACC [CACACA_negctrl_site634],9.02 ± 0.26
4,GTCTCCTTTATTTTTGGTACAGATAAGATAAAAGGA [XGTACX_site1591],8.1 ± 0.28
5,AATCAAAATATATCTACACACATTTAAGTAACCCAT [CACACA_site5846],7.78 ± 0.68
6,TATAACATTATTTTGTGTACACATTCGGTTATATTA [XGTACX_site6310],7.83 ± 0.5
7,GTGTTCATATATAGCCGTACATATGTCTTATGAACG [XGTACX_site5647],8.07 ± 0.26
8,ATTATCAAAAAAAAAAAAAAAAAAAAAAAAAAAAAA [CACACA_negctrl_site1118],8.33 ± 0.85
9,ATATAGATCTATAATACACACTTATGAAATGTCTAA [CACACA_site6946],7.78 ± 0.48
10,TTGTTTCCGATGAAAGAAAGGAAATTATAATATATC [GTGCAC_negctrl_site516],7.81 ± 0.57
11,GATTCATTTCGTAATACACACAACAAATATTTCAAA [CACACA_site1772],8.1 ± 0.43
12,AATGTAAATAAGTGTACACATATATAATACATACAT [CACACA_site4938],8.36 ± 0.099
13,TACCTTATATTATATACACACATATAATATAATATA [CACACA_site1328],7.88 ± 0.46
14,TATTGGATCACACAAAAATGTATAAATAAATAGAAA [TGCATGCA_negctrl_site490],7.7 ± 0.61
15,ATTCAATAAACGTATTGTACAAAAGAACGATATATT [XGTACX_site2533],7.88 ± 0.64
16,TGAGAATAAAAAAAAGGGATTATTAGATTTCTCCTT [TGCATGCA_negctrl_site326],7.13 ± 0.97
17,ATCATAACTTGATACGCACACGTTATATAAATAAAA [CACACA_site4955],8.13 ± 0.25
18,AAAAAAATAAGGTGCACACAAAAAAAAAAAAAAAAA [CACACA_site812],10.9 ± 0.71
19,AAGACAAATTGTGACACACACAAAAAAAAAAAAAAA [CACACA_site3727],7.94 ± 0.57

# — the supplement of paper PMC11417369
